# Assay results taken from a collection of fitness landscapes (doi:10.1016/j.celrep.2020.107928).
# Over roughly 81,000 sequences, “one-hybrid fitness for binding NBS DNA” has its median near -0.1; the highest 2% begin near 0.36. The list shows a part of the results.
# B1: Caulobacter ParB omega fusion; a variant is named by its letters at X, in order, B8GW30 (parent)
# chain: MESVVVGEPGMSEGRRGLGRGLSALLGEVDAAPAQAPGEQLGGSREAPIEILQRNPDQPRRTFREEDLEDLSNSIREKGVLQPILVRPSPDTAGEYQIVAGERAWRAAQRAGLKTVPIMVRELDDLAVLEIGIIENVQRADLNVLEEALSYKVLMEKFERTQENIAQTIGKSXSHVANXMRLLXLPDEVQSYLVSGELTAXHARAIAAAADPVALAKQIIEGGLSVRETEALARKAPNLSAGKSKGGRPPRVKDTDTQALESDLSSVLGLDVSIDHRGSTGTLTITYATLEQLDDLCNRLTRGI
# Variants of: B1
# Assay: one-hybrid fitness for binding NBS DNA (the Noc-binding site; scaled: cognate 1, non-cognate 0); higher = stronger binding
# Settings: with NBS DNA site
# How it was run: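 Fitness is the rescaled log change in variant-to-wild-type read ratio, measured by Illumina sequencing of plasmids before and after bacterial one-hybrid selection. The scale puts cognate at 1 and non-cognate at 0. Selection of Caulobacter ParB libraries, four specificity codons randomised, took place in E. coli USO with a HIS3 reporter, site 19 bp from the promoter, over 48 hours at 37°C on M9-minus-histidine with 0.1 mM IPTG and 5 mM 3-AT.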
row,Variant,one-hybrid fitness for binding NBS DNA
1,KYDN,≤ 0.2
2,WQTF,≤ 0.2
3,NWLC,≤ 0.2
4,LVTP,≤ 0.2
5,KVMG,≤ 0.2
6,MWMC,≤ 0.2
7,AIKC,≤ 0.2
8,LYEC,≤ 0.2
9,SLMF,≤ 0.2
10,SVNP,≤ 0.2
11,ELDR,≤ 0.2
12,KYLV,≤ 0.2
13,KYRR,0.363
14,LDLM,≤ 0.2
15,TGYS,≤ 0.2
16,YDQG,≤ 0.2
17,HFSD,≤ 0.2
18,WFRC,≤ 0.2
19,ARVP,≤ 0.2
20,MSLA,≤ 0.2
21,QISW,≤ 0.2
22,PEWA,≤ 0.2
23,KRNQ,≤ 0.2
24,WGQS,≤ 0.2

row,Variant,one-hybrid fitness for binding NBS DNA
1,HNNR,≤ 0.2
2,TDLN,≤ 0.2
3,MSQG,≤ 0.2
4,TTWN,≤ 0.2
5,YSER,≤ 0.2
6,MRTS,≤ 0.2
7,YCVT,≤ 0.2
8,QPWS,≤ 0.2
9,SKVY,≤ 0.2
10,HMTY,≤ 0.2
11,MRKH,≤ 0.2
12,AKDD,≤ 0.2
13,HIPF,≤ 0.2
14,LRSG,≤ 0.2
15,FLYR,≤ 0.2
16,FCHT,≤ 0.2
17,LSYC,≤ 0.2
18,SQCS,≤ 0.2
19,WQRG,≤ 0.2
20,ARKR,0.364
21,VSWS,≤ 0.2
22,TPAF,≤ 0.2
23,LFIV,≤ 0.2
24,WPLG,≤ 0.2

row,Variant,one-hybrid fitness for binding NBS DNA
1,EYYC,≤ 0.2
2,GNPV,≤ 0.2
3,HRDC,≤ 0.2
4,FEYR,≤ 0.2
5,QNIP,≤ 0.2
6,TDLI,≤ 0.2
7,CIHW,≤ 0.2
8,TETQ,≤ 0.2
9,VDQH,≤ 0.2
10,PRLT,≤ 0.2
11,RHTY,≤ 0.2
12,KFGT,≤ 0.2
13,MKRD,≤ 0.2
14,DRLG,≤ 0.2
15,SLKH,≤ 0.2
16,SHHT,≤ 0.2
17,APHT,≤ 0.2
18,YFES,≤ 0.2
19,DHNG,≤ 0.2
20,MRAD,≤ 0.2
21,HHAS,≤ 0.2
22,FVIR,≤ 0.2
23,NPWC,≤ 0.2
24,PWIR,≤ 0.2

row,Variant,one-hybrid fitness for binding NBS DNA
1,DGLC,≤ 0.2
2,EPYE,≤ 0.2
3,GLWC,≤ 0.2
4,HRPV,≤ 0.2
5,DDPN,≤ 0.2
6,PHTA,≤ 0.2
7,IYRL,≤ 0.2
8,QNDS,≤ 0.2
9,RGTF,≤ 0.2
10,EHPS,≤ 0.2
11,YMTL,≤ 0.2
12,LHLS,≤ 0.2
13,SSPG,≤ 0.2
14,RHAK,≤ 0.2
15,TNFT,≤ 0.2
16,KMAE,≤ 0.2
17,IAKV,≤ 0.2
18,QMRM,0.45
19,PSIL,≤ 0.2
20,HAYP,≤ 0.2
21,ISTV,≤ 0.2
22,PMAR,≤ 0.2
23,TVRI,≤ 0.2
24,GCAN,≤ 0.2

row,Variant,one-hybrid fitness for binding NBS DNA
1,DNQK,≤ 0.2
2,DSGG,≤ 0.2
3,KIPC,≤ 0.2
4,INHG,≤ 0.2
5,HAVG,≤ 0.2
6,AFWR,≤ 0.2
7,EGYC,≤ 0.2
8,GLSA,≤ 0.2
9,FRLM,≤ 0.2
10,SYYT,≤ 0.2
11,YNDG,≤ 0.2
12,GYVE,≤ 0.2
13,QRYC,0.296
14,QAVQ,0.32
15,FMDR,≤ 0.2
16,LTPK,≤ 0.2
17,CNRT,≤ 0.2
18,STSN,≤ 0.2
19,SEGG,≤ 0.2
20,RMTN,≤ 0.2
21,HKSK,≤ 0.2
22,GNMC,≤ 0.2
23,PRCP,≤ 0.2
24,DLVS,≤ 0.2

row,Variant,one-hybrid fitness for binding NBS DNA
1,STKC,≤ 0.2
2,HWAS,≤ 0.2
3,NCAS,≤ 0.2
4,LSAR,≤ 0.2
5,TIIC,≤ 0.2
6,WVIG,≤ 0.2
7,TGSP,≤ 0.2
8,YSNT,≤ 0.2
9,ASYA,≤ 0.2
10,HIWD,≤ 0.2
11,TSFL,≤ 0.2
12,RHCG,≤ 0.2
13,SQSM,≤ 0.2
14,HYTY,≤ 0.2
15,GIKL,≤ 0.2
16,HVSC,≤ 0.2
17,VEYL,≤ 0.2
18,YGNC,≤ 0.2
19,LHLR,≤ 0.2
20,RAKM,0.203
21,LVSL,≤ 0.2
22,WAMN,≤ 0.2
23,RIHE,≤ 0.2
24,ERFG,≤ 0.2

row,Variant,one-hybrid fitness for binding NBS DNA
1,WTGW,≤ 0.2
2,LAAW,≤ 0.2
3,SGPK,≤ 0.2
4,HDNC,≤ 0.2
5,HMYR,≤ 0.2
6,RKKF,≤ 0.2
7,HCEM,≤ 0.2
8,TPQY,≤ 0.2
9,VATL,≤ 0.2
10,ATNT,≤ 0.2
11,LRNG,≤ 0.2
12,SHYG,≤ 0.2
13,KMKS,0.225
14,TWEG,≤ 0.2
15,KRYS,0.447
16,VCNG,≤ 0.2
17,QHDH,≤ 0.2
18,LIDE,≤ 0.2
19,CRMR,≤ 0.2
20,RCFM,≤ 0.2
21,VAHV,≤ 0.2
22,SGTF,≤ 0.2
23,RLAG,≤ 0.2
24,FDES,≤ 0.2

row,Variant,one-hybrid fitness for binding NBS DNA
1,NSMC,≤ 0.2
2,WTST,≤ 0.2
3,CTLV,≤ 0.2
4,FVDS,≤ 0.2
5,IKGS,≤ 0.2
6,PGPM,≤ 0.2
7,NDSI,≤ 0.2
8,THSC,≤ 0.2
9,HFSC,≤ 0.2
10,TRMH,≤ 0.2
11,ASYN,≤ 0.2
12,TFGS,≤ 0.2
13,QQTM,≤ 0.2
14,HTRC,≤ 0.2
15,TFMT,≤ 0.2
16,SFYM,≤ 0.2
17,WIVA,≤ 0.2
18,LVDS,≤ 0.2
19,VYDD,≤ 0.2
20,CNNR,≤ 0.2
21,LEDL,≤ 0.2
22,SMYN,≤ 0.2
23,LMAL,≤ 0.2
24,PGLV,≤ 0.2

row,Variant,one-hybrid fitness for binding NBS DNA
1,IRDS,≤ 0.2
2,GACR,≤ 0.2
3,YPQT,≤ 0.2
4,RRWY,0.36
5,ATVM,≤ 0.2
6,MNLF,≤ 0.2
7,QIDI,≤ 0.2
8,NKSW,≤ 0.2
9,DRSA,≤ 0.2
10,RFGF,≤ 0.2
11,GKKR,0.254
12,TVTF,≤ 0.2
13,KVDR,≤ 0.2
14,SWNY,≤ 0.2
15,VGMM,≤ 0.2
16,PALL,≤ 0.2
17,NMSG,≤ 0.2
18,AEWG,≤ 0.2
19,NRWN,≤ 0.2
20,TRRV,≤ 0.2
21,LDMG,≤ 0.2
22,RINP,≤ 0.2
23,TTHL,≤ 0.2
24,RLPH,≤ 0.2

row,Variant,one-hybrid fitness for binding NBS DNA
1,QTFV,≤ 0.2
2,IHGT,≤ 0.2
3,KCLG,≤ 0.2
4,ESPE,≤ 0.2
5,ETNF,≤ 0.2
6,GMIM,≤ 0.2
7,RSMA,≤ 0.2
8,LGTV,≤ 0.2
9,RRMM,0.221
10,MVTV,≤ 0.2
11,IVDC,≤ 0.2
12,MPYE,≤ 0.2
13,WIAG,≤ 0.2
14,PDIG,≤ 0.2
15,MPQW,≤ 0.2
16,LSCS,≤ 0.2
17,MRQC,≤ 0.2
18,LTTV,≤ 0.2
19,ATSC,≤ 0.2
20,KINY,≤ 0.2
21,GSCT,≤ 0.2
22,IQCG,≤ 0.2
23,PIKR,≤ 0.2
24,RSHL,≤ 0.2

row,Variant,one-hybrid fitness for binding NBS DNA
1,GYWF,≤ 0.2
2,TLSM,≤ 0.2
3,QGQV,≤ 0.2
4,ANWD,≤ 0.2
5,QKLI,≤ 0.2
6,GTPA,≤ 0.2
7,EPKK,≤ 0.2
8,HTVL,≤ 0.2
9,WNSR,≤ 0.2
10,VPFC,≤ 0.2
11,QLPM,≤ 0.2
12,HPCH,≤ 0.2
13,WQMR,≤ 0.2
14,ESYT,≤ 0.2
15,KCPI,≤ 0.2
16,ARGF,≤ 0.2
17,LDKT,≤ 0.2
18,LHIT,≤ 0.2
19,MVTL,≤ 0.2
20,SPIT,≤ 0.2
21,AHGY,≤ 0.2
22,NNSE,≤ 0.2
23,VTMF,≤ 0.2
24,LHME,≤ 0.2

row,Variant,one-hybrid fitness for binding NBS DNA
1,FDSR,≤ 0.2
2,LVRG,≤ 0.2
3,YTRV,≤ 0.2
4,MGCS,≤ 0.2
5,YARI,≤ 0.2
6,IDNL,≤ 0.2
7,STAF,≤ 0.2
8,DNIT,≤ 0.2
9,QRYG,0.312
10,HFVY,≤ 0.2
11,QPRM,≤ 0.2
12,RGYT,≤ 0.2
13,GYGF,≤ 0.2
14,GGSS,≤ 0.2
15,RPPK,≤ 0.2
16,SYTG,≤ 0.2
17,HSWL,≤ 0.2
18,KTAQ,≤ 0.2
19,YLRW,≤ 0.2
20,CLWS,≤ 0.2
21,LSGT,≤ 0.2
22,QSRL,0.228
23,QVNQ,≤ 0.2
24,SLCL,≤ 0.2

row,Variant,one-hybrid fitness for binding NBS DNA
1,EQNT,≤ 0.2
2,VLVS,≤ 0.2
3,PAAM,≤ 0.2
4,MYST,≤ 0.2
5,KLRS,≤ 0.2
6,QWLP,≤ 0.2
7,TNMD,≤ 0.2
8,RREE,≤ 0.2
9,REPQ,≤ 0.2
10,HVND,≤ 0.2
11,CCFR,≤ 0.2
12,EDNV,≤ 0.2
13,IKDS,≤ 0.2
14,NLYC,≤ 0.2
15,IVCC,≤ 0.2
16,RNID,≤ 0.2
17,QSQF,≤ 0.2
18,DITT,≤ 0.2
